The source of these data is PubChem BioAssay (NCI).

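Cells were grown in 96-well plates and exposed to each compound for 48 hours at five concentrations; endpoints were interpolated linearly between bracketing concentrations, or set to the highest concentration if not reached. At the GI50, growth is halved.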 The source holds more than one record for some entries. This list holds those alone. An entry can have further records. A record mostly stands for its own series of concentrations, which the source does not state; a value can be the end of its range.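 TGI marks complete inhibition of growth.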

What all share (test): NCI anticancer screen, dose series, 48 h
The subject of test [1] is BT-549 breast.
Test [2] has as its system HOP-62 NSCLC.
Test [3] relates to HT29 colon.
Test [4] relates to OVCAR-3 ovarian.
The subject of test [5] is SN12C renal.
The subject of test [6] is RXF 393 renal.
Test [7] has as its system SK-MEL-2 melanoma.
Test [8] concerns HCT-116 colon.
For test [9], the system named is A498 renal.
Test [10] has as its system LOX IMVI melanoma.
Test [11] deals with UACC-257 melanoma.
For test [12], the system named is EKVX NSCLC.
In test [13] the test system is MOLT-4 leukemia.
Test [14] has as its system HS 578T breast.
Test [15] deals with SR leukemia.

On to `CC(=O)O[C@H]1C(=O)[C@@]2(C)[C@H]([C@H](OC(=O)c3ccccc3)[C@]3([O-])C[C@H](OC(=O)[C@H]([O-])[C@@H](NC(=O)c4ccccc4)c4ccccc4)C(C)=C1C3(C)C)[C@]1(OC(C)=O)CO[C@@H]1C[C@@H]2[O-].[Fe+3]`, for which the TGI in [1] was 479 nM and > 100 µM; in [3], 422 nM and 11.9 µM; in test [4] it was 65 nM and 1.97 µM; in test [6], 452 nM and 11.6 µM; in test [7] it was 392 nM and 31.9 µM; in [8], 665 nM and 12.4 µM. Besides, the TGI in [9] was 471 nM and 83.7 µM; in [10], 7.14 µM and > 100 µM; in [14] it was 842 nM and > 100 µM; in test [15], 490 nM and > 100 µM. Also, the GI50 in test [2] was 161 nM and 12.3 µM; in [5], 13.9 µM and 220 nM; in [9] it was 37.5 nM and 585 nM; in test [11], 112 nM and 18.3 µM; in test [12] it was 168 nM and 1.95 µM; in test [13], 204 nM and 13.8 µM.
As to `CC1=Nc2c(ccc3c2C(=O)c2ccccc2C3=O)NC(c2ccncc2)C1` (configuration not stated), in test [15], the TGI was 933 nM and > 100 µM.
